Reference: patent publication US12186310B2, “Antibody-drug conjugate” (DAIICHI SANKYO COMPANY, LIMITED, priority 2012, dated 2025)

Legend:
[1] = tested on: Human melanoma line A375 cells; test: Antitumor test (4), subcutaneously transplanted A375; format: in vivo, mouse
Method: (§1) Mouse: 5- to 6-week-old female BALB/c nude mice (Charles River Laboratories Japan, Inc.) were acclimatized for 4 to 7 days under SPF conditions before use in the experiment. The mice were fed with sterilized solid feed (FR-2, Funabashi Farms Co., Ltd) and given sterilized tap water (prepared by the addition of 5 to 15 ppm sodium hypochlorite solution).
(§2) Assay and calculation expression: In all studies, the major axis and minor axis of tumor were measured twice a week by using an electronic digital caliper (CD-15C, Mitutoyo Corp.), and the tumor volume (mm^3) was calculated. The calculation expression is as shown below. Tumor volume (mm^3)=½×Major axis (mm)×[Minor axis (mm)]^2
Human melanoma line A375 cells were purchased from ATCC (American Type Culture Collection). 8×10^6 cells suspended in physiological saline were subcutaneously transplanted to the right abdomen of each female nude mouse (Day 0), and the mice were randomly grouped at Day 21. The antibody-drug conjugates (1), (13), (41), and (55) were each intravenously administered at a dose of 10 mg/kg to the tail of each mouse at Day 21.

[2] = Released compound confirmed in the tumor of a cancer-bearing mouse that received the antibody-drug conjugate; conditions: released compound: 4-amino-N-[...]butanamide of Example 1
[3] = tested on: Human non-small cell lung cancer line Calu-6 cells; test: Antitumor test (5), subcutaneously transplanted Calu-6; format: in vivo, mouse
Method: as §1, §2
Human non-small cell lung cancer line Calu-6 cells were purchased from ATCC (American Type Culture Collection). 5×10^6 cells suspended in physiological saline were subcutaneously transplanted to the right abdomen of each female nude mouse (Day 0), and the mice were randomly grouped at Day 12. The antibody-drug conjugates (13), (41), and (55) were each intravenously administered at a dose of 10 mg/kg to the tail of each mouse at Day 12. As a comparative control, DE-310 was intravenously administered at a dose of 0.1 mg/kg to the tail of each mouse at Day 12. […]

[4] = tested on: Human melanoma line A375 cells; test: Antitumor test (6), subcutaneously transplanted A375; format: in vivo, mouse
Method: as §1, §2
Human melanoma line A375 cells were purchased from ATCC (American Type Culture Collection). 1×10^7 cells suspended in physiological saline were subcutaneously transplanted to the right abdomen of each female nude mouse (Day 0), and the mice were randomly grouped at Day 11. The antibody-drug conjugates (17), (18), (19), (59), (60), and (61) were each intravenously administered at a dose of 3 mg/kg to the tail of each mouse at Days 11 and 18 in a schedule of qw×2.

Molecule	tumor volume ([1]; A375 subcutaneous, female nude mice, 10 mg/kg intravenously at Day 21, FIG. 20)	notable signs such as weight loss ([1]; mice that received 10 mg/kg intravenously at Day 21)	compound of Example 1 confirmed in the tumor of a cancer-bearing mouse that received the conjugate [2]	tumor volume ([3]; Calu-6 subcutaneous, female nude mice, 10 mg/kg (amount of the antibody) intravenously at Day 12, FIG. 21)	notable signs such as weight loss ([3]; mice that received 10 mg/kg intravenously at Day 12)	tumor volume ([4]; A375 subcutaneous, female nude mice, 3 mg/kg intravenously at Days 11 and 18 (qw×2), FIG. 22)	notable signs such as weight loss ([4]; mice that received 3 mg/kg intravenously at Days 11 and 18)
antibody-drug conjugate (13): M30-H1-L4P antibody conjugated with compound of Process 1 of Example 14; average drug molecules per antibody 3.4 (conjugate) heavy: QVQLVQSGAEVKKPGSSVKVSCKASGYTFTNYVMHWVRQAPGQGLEWMGYINPYNDDVKYNEKFKGRVTITADESTSTAYMELSSLRSEDTAVYYCARWGYYGSPLYYFDYWGQGTLVTVSSASTKGPSVFPLAPSSKSTSGGTAALGCLVKDYFPEPVTVSWNSGALTSGVHTFPAVLQSSGLYSLSSVVTVPSSSLGTQTYICNVNHKPSNTKVDKRV[not shown - human IgG1 Fc] light: EIVLTQSPATLSLSPGERATLSCRASSRLIYMHWYQQKPGQAPRPLIYATSNLASGIPARFSGSGSGTDFTLTISSLEPEDFAVYYCQQWNSNPPTFGQGTKVEIKRTVAAPSVFIFPPSDEQLKSGTASVVCLLNNFYPREAKVQWKVDNALQSGNSQESVTEQDSKDSTYSLSSTLTLSKADYEKHKVYACEVTHQGLSSPVTKSFNRGEC	remarkably decreased the tumor volume	free from notable signs such as weight loss	confirmed in the tumor	remarkably decreased the tumor volume	free from notable signs such as weight loss		
antibody-drug conjugate (17): M30-H1-L4P antibody conjugated with compound of Process 1 of Example 14; average drug molecules per antibody 3.5 (conjugate) heavy: QVQLVQSGAEVKKPGSSVKVSCKASGYTFTNYVMHWVRQAPGQGLEWMGYINPYNDDVKYNEKFKGRVTITADESTSTAYMELSSLRSEDTAVYYCARWGYYGSPLYYFDYWGQGTLVTVSSASTKGPSVFPLAPSSKSTSGGTAALGCLVKDYFPEPVTVSWNSGALTSGVHTFPAVLQSSGLYSLSSVVTVPSSSLGTQTYICNVNHKPSNTKVDKRV[not shown - human IgG1 Fc] light: EIVLTQSPATLSLSPGERATLSCRASSRLIYMHWYQQKPGQAPRPLIYATSNLASGIPARFSGSGSGTDFTLTISSLEPEDFAVYYCQQWNSNPPTFGQGTKVEIKRTVAAPSVFIFPPSDEQLKSGTASVVCLLNNFYPREAKVQWKVDNALQSGNSQESVTEQDSKDSTYSLSSTLTLSKADYEKHKVYACEVTHQGLSSPVTKSFNRGEC						remarkably decreased the tumor volume	free from notable signs such as weight loss
